In PubChem BioAssay AID1963576 (National Center for Advancing Translational Sciences (NCATS), 2024):
Among all 46,000 compounds or so, about 60 (0.1%) were called active. Roughly 3% stayed inconclusive and do not appear here. Calls come from the whole dose curve; as a rule, active = well fitted inhibition curve with a large enough effect; inconclusive = small, poorly fitted or top-dose-only effect; inactive = no such curve, though single readings can be large or run the other way. Some of the results follow.

experiment: Primary qHTS assay for Inhibitors of ovarian cancer metastasis using an organotypic tumor microenvironment (TME) model.; note: nearly all actives have a fitted effect of over 65% in size; conditions: SKOV3ip1-GFP adhesion/invasion on 3D omental model, fluorescence; series mostly up to 45.8 µM; activity change, negative = inhibition: at the top concentration
From the text: PI: Ernst Lengyel MD., Ph.D. Department of Obstetrics and Gynecology, Section of Gynecologic Oncology University of Chicago Medicine, Chicago, Illinois. The tumor microenvironment (TME) is a key determinant of metastatic efficiency. We performed a quantitative high-throughput screen (qHTS) of diverse medicinal chemistry tractable scaffolds (44,420 compounds) and pharmacologically active small molecules (386 compounds) using a layered organotypic, robust assay representing the ovarian cancer metastatic TME. This 3D model contains primary human mesothelial cells, fibroblasts, and extracellular matrix, to which fluorescently labeled ovarian cancer cells are added. Initially, 100 compounds inhibiting ovarian cancer adhesion/invasion to the 3D model in a dose-dependent manner were identified. Of those, eight compounds were confirmed active in five high-grade serous ovarian cancer cell lines and were further validated in secondary in vitro and in vivo biological assays. […] Specifically, NCGC00117362 and PP-121 inhibited ovarian cancer adhesion, invasion, and proliferation, whereas milciclib inhibited ovarian cancer invasion and proliferation. […] To evaluate the clinical potential of NCGC00117362, structure - activity relationship studies were performed. […] The three compounds identified have promise as therapeutics for prevention and treatment of ovarian cancer metastasis.
PROTOCOL TABLE (as described by Inglese J, Shamu CE and Guy RK. 2007) SEQUENCE No. (e.g., 1, 2, 3, etc.); […] (e.g., Cells, Incubation, Reagent, etc.); VALUE; DESCRIPTION. 1; Cells; 4 uL; primary human omental fibroblast, black, clear bottom, low base, 1536-well Aurora assay plate. 2; Incubation; 48 hr; 37C. 3; Cells; 3 uL; 1,200 SKOV3ip1-GFP cells. 4; Compounds; 23nL; acoustic dispenser. 5; Incubation; 2 hr; room temperature. 6; Incubation; 16 hr; 37C. 7; Wash; 5 uL; 1x PBS. 8; Fixing; 5 uL; 4% paraformaldehyde (PFA). 9; Incubation; 15 min; room temperature 10; Wash, 5 uL; 1x PBS. 11; Detection; Fluorescence, excitation filter 488 nm, emission filter 509 nm. NOTES (numbers refer to Sequence numbers above) 1. For the 1,536-well format, 40 primary human omental fibroblasts and 400 mesothelial cells were seeded with 0.02 µg fibronectin and 0.02 µg collagen type I in 4 µL of growth media (2.3 mm2; Supplementary Fig. S1A). 2. Assay plates were incubated for 48 hours at 37 C. 3. After incubation, 1,200 SKOV3ip1-GFP were seeded in 3 µL of serum-free media (growth media minus FBS) on top of primary human omental cells. 4. Compounds or controls were added to each well immediately after the addition of the cancer cells. Compounds were screened in four doses (0.36-46 µmol/L), and the plates contained the positive control (Tomatine) in eight doses (0.035-75 µmol/L) and DMSO (equal volume controls) 5 - 6. The plates were incubated at room temperature for 2 hours and then at 37 degrees C for 16 hours. 7 - 10. Following incubation, the media were aspirated and each well washed with PBS (5 µL) and then fixed with 4% paraformaldehyde (PFA; 5 µL). After 15 minutes, the PFA solution was aspirated, PBS (5 µL) was added. 11. The number of GFP-labeled cells analyzed using a fluorescent cytometer TTP LabTech Acumen eX3 using 488 nm excitation filter and 509 nm emission filter. Data was normalized to the DMSO treated for negative and Tomatine treated wells for positive control. REFERENCES: Inglese J, Shamu CE and Guy RK, Reporting data from high throughput screening of small molecule libraries, Nature Chemical Biology, 2007, 3(8): 438-441. doi.org/10.1038/nchembio0807-438. Yasgar A, Shinn P, Jadhav A, Auld DS, Michael S, Zheng W, Austin CP, Inglese J and Simeonov A, Compound Management for Quantitative High-Throughput Screening. J. Assoc. Lab. Auto., 2008, 13: 79-89. doi: 10.1016/j.jala.2007.12.004.

Activity change, negative = inhibition, inactive:
COC(=O)c1ccc(Cl)cc1NC(=O)N1CCC(CN2CCCC2)CC1 -8.06%
Cc1ccc(C(=O)c2cn(Cc3ccccc3F)c3cc4c(cc3c2=O)OCO4)cc1 6.3%
COC(=O)c1c(NC(=O)COc2ccccc2Cl)sc2c1CCC(C(C)(C)C)C2 (stereo not drawn) 1.25%
O=C(Nc1ccc(Br)cc1)c1ccc(Br)c(S(=O)(=O)N2CCCCC2)c1 -3.73%
CCc1ccccc1N(C)S(=O)(=O)c1ccc2[nH]cc(C(=O)NCCOC)c(=O)c2c1 20.6%
CCc1ccc(S(=O)(=O)c2c[nH]c3cc(OC)c(OC)cc3c2=O)cc1 -6.04%
COc1cc(/C=C(\C#N)c2nc3ccc(C)cc3[nH]2)ccc1OC(C)C -9.89%
CC1(C)O[C@@H]2C[C@H]3[C@@H]4CCC5=CC(=O)C=C[C@]5(C)[C@@H]4[C@@H](O)C[C@]3(C)[C@]2(C(=O)CO)O1 1.24%
COc1cccc(NC(=O)C(=O)NCC(c2ccc3c(c2)OCO3)N2CCOCC2)c1 (stereo not drawn) -8.82%
Cc1ccccc1NC(=O)Cn1c(=O)n(-c2ccc(CC(=O)NCC3CCCO3)cc2)c(=O)c2ccccc21 (stereo not drawn) -20.9%
CC(C=CC=C(C)C=CC1=C(C)CCCC1(C)C)=CC=CC=C(C)C=CC=C(C)C=CC1=C(C)CCCC1(C)C -3.39%
Fc1ccc(C(Nc2ccc(Cl)c(C(F)(F)F)c2)c2nnc(-c3ccccc3)o2)cc1 (stereo not drawn) -12%
CN(Cc1ccccc1)C(C(=O)NC1CCCCC1)c1ccc(Cl)cc1 (stereo not drawn) -4.14%
COc1cc(OC)c(NC(=O)CCn2cccn2)cc1Cl -2.67%
Cc1ccc(OCC(=O)N(Cc2ccco2)Cc2ccco2)cc1 -2.44%
COc1cccc(-c2nc(CS(=O)(=O)CC(=O)Nc3cc(F)ccc3F)c(C)o2)c1 0.411%
Cc1ccc(NC(=O)CSc2nc3ccccc3c3nc(CCn4cncc4C)nn23)c(C)c1 0.658%
COc1cc(-c2noc(-c3ccc(N4CCOCC4)c([N+](=O)[O-])c3)n2)cc(OC)c1OC 1.64%
Cc1c2cnn(-c3ccccc3)c(=O)c2c(C)n1CC(=O)N1CCN(c2ccc(F)cc2)CC1 4.1%
CCN(CCCNC(=O)CSc1cc(=O)n(C)c2cc(Cl)ccc12)c1cccc(C)c1 -2.33%
COc1ccc2nc3sc(C(=O)N4CCN(c5ccccc5)CC4)cc3cc2c1 -3.03%
Oc1c(C(c2ccc(Br)cc2)N2CCOCC2)sc2nc(-c3ccco3)nn12 (stereo not drawn) 3.55%
CCc1ccc(C(=O)c2c(N)c(-c3nc(-c4ccc5c(c4)OCO5)cs3)c3ccccn23)cc1 -5.86%
CCS(=O)(=O)c1nc2ccccc2n1CC(=O)Nc1ccccc1C(=O)OC 4.16%
COc1cccc(CNC(=O)c2ccc3c(c2)N(Cc2ccc(C(F)(F)F)cc2)C(=O)c2ccccc2S3)c1OC -1.71%
CN1CCN(C(=O)c2cnn(-c3cccc(Cl)c3)c2C2CCN(C(=O)OC(C)(C)C)CC2)CC1 21.4%
CCCCNc1nc2c(S(=O)(=O)c3ccc(Cl)cc3)nnn2c2ccsc12 16.4%
O=C(NCc1ccco1)c1c[nH]c2ccc(S(=O)(=O)Nc3ccc(F)cc3F)cc2c1=O -6.29%
CC(C)CCNC(=O)CN1C(=O)c2cccnc2Oc2ccccc21 4.25%
N#Cc1ccccc1S(=O)(=O)N1CCCC(c2nc3c(nnn3Cc3cccc(Cl)c3)c(=O)[nH]2)C1 (stereo not drawn) 9.87%
COC(=O)c1ccc([C@H]2Nc3ccc(S(=O)(=O)Nc4ccc(C)cc4)cc3[C@H]3C=CC[C@H]32)cc1 3.51%
CC(C)(C)c1ccc(S(=O)(=O)c2cnc(SCC(=O)Nc3ccc(F)c(Cl)c3)[nH]c2=O)cc1 -7.83%
CCOc1ccc(NC(=O)Cc2ccc(NC(=O)N3CCCCc4ccccc43)cc2)cc1 -0.553%
CCOc1ccccc1CNC(=O)CN(c1ccc(C)cc1)S(=O)(=O)N(C)C 14.5%
Cc1ccc(CN(Cc2ccco2)C(=O)COc2ccc(Cl)cc2Cl)cc1 9.02%
COc1ccc(-c2nnc(SCC(=O)NCc3ccccc3)nc2-c2ccc(OC)c(OC)c2)cc1OC -9.97%
COc1ccc(S(=O)(=O)N2CCC(c3nnc(-c4ccccc4C)o3)CC2)c(OC)c1 -3.08%
Cc1noc2ncnc(N3CCCC(C(=O)NCCC(C)C)C3)c12 (stereo not drawn) 11.4%
COc1cccc(-n2cc(C(=O)Oc3ccc(F)cc3)c3ccccc3c2=O)c1 0.568%
Cc1nn2c(=O)cc(COC(=O)c3ccccc3NC(=O)C(C)C)nc2s1 8.85%
Cc1ccc(S(=O)(=O)c2c(Nc3ccccc3)sc(C(=O)c3ccc4c(c3)OCO4)c2N)cc1 88.8%
O=C(C=Cc1ccc(/C=C/C(=O)Nc2ccc(C3=NCCN3)cc2)cc1)Nc1ccc(C2=NCCN2)cc1 -5.48%
CCCNC(=O)CCn1nc(-c2ccc(C)cc2)c2ccccc2c1=O 3.39%
COc1ccc(C)cc1S(=O)(=O)Nc1cccc(-c2ccc(N3CCCC3)nn2)c1 -7.95%
COc1ccc(OC)c(NC(=O)Cn2ccn(-c3ccc(F)cc3)c(=O)c2=O)c1 3.01%
Cc1ccc(C(N)=O)cc1Nc1nccc(-c2cn(C(C)C)c3cnccc23)n1 -13.1%
Cc1ccc2ncc(C(=O)Nc3cccc(C(F)(F)F)c3)c(=O)n2c1 1.74%
CCc1ccc(OCC(=O)NCC(c2ccc(Cl)cc2)N2CCOCC2)cc1 (stereo not drawn) -17.1%
CCCC12CN3CC(C)(CN(C1)C3c1ccc(CC)cc1)C2=O (stereo not drawn) 4.16%
CCOC(=O)c1ccc2ncc(C(=O)OCC)c(NCCc3ccc(OC)c(OC)c3)c2c1 22%
CC(=O)OCC(=O)[C@@]1(O)CC[C@H]2[C@@H]3CCC4=CC(=O)C=C[C@]4(C)[C@@H]3[C@@H](O)C[C@@]21C 17.4%
COc1ccccc1NC(=O)c1sc2cccc(Cl)c2c1Cl 14.8%
CCOc1ccc(CCNC(=O)c2cc3c(=O)n(C)c4ccccc4c3s2)cc1OCC -15.3%
CC(C)c1ccc(NC(=O)c2cc3c(=O)oc4ccccc4c3s2)cc1 -0.0479%
Cc1cccc(NC(=O)CSc2nc3ccccc3c3nc(CCn4cncc4C)nn23)c1 -5.01%
COc1ccc(N2CCN(C(CNC(=O)C(=O)NCc3ccc(C)cc3)c3cccnc3)CC2)cc1 (stereo not drawn) 5.32%
Cc1cccc(N2CCN(C(c3ccc(F)cc3)c3nnc(-c4ccccc4)o3)CC2)c1C (stereo not drawn) -1.14%
CCN1CCN(C(=O)Cn2ncc3c4ccccc4n(Cc4ccccc4F)c3c2=O)CC1 9.06%
O=c1cc2nc(-c3ccccc3)nc(SCc3cccc(Br)c3)n2[nH]1 5.41%
CCNC(=O)c1c(NC(=O)c2cc(=O)c3ccc(C)c(C)c3o2)sc2c1CCCC2 -1.1%
CCCCN(CCCC)C(=O)c1cc2c(=O)n3ccccc3nc2s1 -1.69%
Cc1ccc(Cl)cc1N1CCN(C(=O)C(C)n2ncn3cccc3c2=O)CC1 (stereo not drawn) -1.69%
Cc1cc(C(F)(F)F)c2c(N)c(C(=O)Nc3c(Cl)cccc3Cl)sc2n1 9.39%
O=C(CN1CCN(Cc2ccc(F)cc2)C1=O)NCc1ccccc1 9.09%
Cc1ccc(-n2nc3c(=O)n(CCCC(=O)NCc4ccc(F)cc4)nc(C)c3c2C)cc1 -10.6%
O=C(NCCSc1c(-c2ccc(Cl)cc2)[nH]c2ccccc12)c1ccc(S(=O)(=O)N2CCOCC2)cc1 4.55%
COc1ccc(Nc2ncnc3c2cnn3C)c(OC)c1 0.967%
Cc1nn(-c2ccccc2)c2c1cc1c(=O)[nH]c(=O)nc-1n2-c1cccc(C(F)(F)F)c1 -7.51%
O=S(=O)(Nc1ccc(-c2ccc(N3CCCCCC3)nn2)cc1)c1ccc(C(F)(F)F)cc1 9.1%
CC(C)OCCCNC(=O)CN1C(=O)CSc2ccc(S(=O)(=O)N3CCOCC3)cc21 -2.31%
C=Cc1ccc(Cn2c(C(=O)OC)cc3sc(C)cc32)cc1 4.73%
COc1cccc(NC(=O)CC2Oc3ccccc3NC2=O)c1 (stereo not drawn) 6.73%
CC(=O)c1cccc(Nc2ncnc3c2cnn3-c2cccc(Cl)c2)c1 -13.6%
CC1CCCCN1S(=O)(=O)c1ccc2[nH]c(=O)cc(C(=O)NCCc3ccc(Cl)cc3)c2c1 (stereo not drawn) -16.3%
COC(=O)c1c(NC(=O)c2c(OC)cccc2OC)sc2c1CCCC2 0.291%

outcome, inactive:
Cc1ccc(CCNC(=O)c2cc3sccc3n2Cc2ccc(F)cc2)cc1
Cc1cn2c(=O)cc(COC(=O)c3cccc(NC(=O)COc4ccc(Cl)cc4)c3)nc2s1
COc1ccc2cc3cc(C(=O)NCCc4ccccc4)sc3nc2c1Cl
COc1ccc(-c2cc(C(F)(F)F)nc(NCc3ccccc3)n2)cc1
O=C(Cn1c(=O)n(-c2ccc(Cl)cc2)c(=O)c2sc3ccccc3c21)NC1CCCCC1
COc1ccc(CCNC(=O)CCn2c(=O)c3ccccc3n(Cc3c(C)cc(C)cc3C)c2=O)cc1OC
Cc1nn(-c2ccccc2)c2c1N(CCCC(=O)NCc1ccc(Cl)cc1)C(=O)CS2
Cc1csc2nc(CCNS(=O)(=O)c3ccccc3)cn12
CN(C)c1ccc(C(CNC(=O)c2ccccc2F)N2CCc3ccccc32)cc1 (stereo not drawn)
COc1cc(C(=O)Nc2cccc(OCc3cc(=O)n4c(C)csc4n3)c2)cc(OC)c1OC
COc1ccc(-c2nc(SCC(=O)NCC3CCCO3)c(-c3ccc(Cl)cc3)[nH]2)cc1 (stereo not drawn)
Cc1ccccc1-c1nc(NC(=O)CSc2ncnc3sc4c(c23)CCCC4)ns1
COc1cccc(N2CCN(C(=O)c3cnc4c(C)cccn4c3=O)CC2)c1
O=C(CC(c1cccs1)N1Cc2ccccc2C1=O)Nc1ccccc1 (stereo not drawn)
Cc1cccc(N2CCN(S(=O)(=O)c3ccc(F)c(C(=O)Nc4cccc(Cl)c4C)c3)CC2C)c1 (stereo not drawn)
Cc1ccc2c(c1)-c1onc(C(=O)N3CCN(c4cccc(C)c4C)CC3)c1CO2
Cc1cc(C)c(S(=O)(=O)NCC(c2ccco2)N2CCN(c3ccccc3)CC2)c(C)c1 (stereo not drawn)
COc1cccc(NC(=O)c2oc3ccc(S(=O)(=O)N4CCOCC4)cc3c2C)c1
